Test results reported in the supplement of paper PMC4604168 (melanoma cell lines).
The other results are listed elsewhere or left out. Many values rest on one well or one pass, so single values are uncertain.

What was measured:
Assay in all cases: cell count relative to DMSO control; melanoma cells; higher = more viable cells
Conditions in all cases: library dose: low library concentration; 72 h
WM115 = system: WM115
WM1716 = system: WM1716
WM1745 = system: WM1745
WM3526 = system: WM3526
WM3619 = system: WM3619
WM451Lu = system: WM451Lu
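Note: cell number obtained by counting DAPI-stained nuclei in high-throughput microscope images with image analysis software, screen run in 1,536-well plates.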

| SMILES | cell count (WM115) [%] | cell count (WM1716) [%] | cell count (WM1745) [%] | cell count (WM3526) [%] | cell count (WM3619) [%] | cell count (WM451Lu) [%] |
| --- | --- | --- | --- | --- | --- | --- |
| Cc1ccc(Nc2nccc(N(C)c3ccc4c(C)n(C)nc4c3)n2)cc1S(N)(=O)=O [Pazopanib] + COc1cc(Nc2ncc(F)c(Nc3ccc4c(n3)NC(=O)C(C)(C)O4)n2)cc(OC)c1OC [Tamatinib] (first compound 0.4 µM, partner dose 0.4 µM) | 80.8 | 92.7 | 91.6 | 85.3 | 90.1 | 116 |
| Cc1ccc(Nc2nccc(N(C)c3ccc4c(C)n(C)nc4c3)n2)cc1S(N)(=O)=O [Pazopanib] + C=CCn1c(=O)c2cnc(Nc3ccc(N4CCN(C)CC4)cc3)nc2n1-c1cccc(C(C)(C)O)n1 [MK1775] (first compound 0.4 µM, partner dose 0.02 µM) | 77.7 | 89.5 | 89.3 | 78.6 | 82.5 | 82.5 |
| CC1(C)CCC(c2ccc(Cl)cc2)=C(CN2CCN(c3ccc(C(=O)NS(=O)(=O)c4ccc(N[C@H](CCN5CCOCC5)CSc5ccccc5)c(S(=O)(=O)C(F)(F)F)c4)cc3)CC2)C1 + CCCS(=O)(=O)Nc1ccc(F)c(C(=O)c2c[nH]c3ncc(Cl)cc23)c1F [PLX4720] (first compound 0.4 µM, partner dose 0.08 µM) | 73.4 | 64.2 | 7.68 | 64.7 | 61.7 | 80.6 |
| Cc1ccc(Nc2nccc(N(C)c3ccc4c(C)n(C)nc4c3)n2)cc1S(N)(=O)=O [Pazopanib] + COc1cc2ncnc(Nc3ccc(Oc4ccccc4)cc3)c2cc1OC [SrcI1] (first compound 0.4 µM, partner dose 2 µM) | 91.5 | 107 | 95 | 85.1 | 96 | 89.2 |
